Test results: PubChem BioAssay AID1963576 (National Center for Advancing Translational Sciences (NCATS), 2024)
The campaign covered roughly 46,000 compounds. About 60 (0.1%) were called active. Roughly 3% stayed inconclusive and do not appear here. The call rests on the fitted dose curve; in most records, active means well fitted inhibition curve with a large enough effect; inconclusive means small, poorly fitted or top-dose-only effect; inactive means no such curve, though single readings can be large or run the other way. The list shows a part of the results.

Assay: Primary qHTS assay for Inhibitors of ovarian cancer metastasis using an organotypic tumor microenvironment (TME) model. Further: nearly all actives have a fitted effect of over 65% in size.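 On activity change, negative = inhibition: plate controls were DMSO wells for no effect and tomatine positive control wells for full effect.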
Settings: SKOV3ip1-GFP adhesion/invasion on 3D omental model, fluorescence; series mostly up to 45.8 µM; activity change, negative = inhibition: at the top concentration
Outline: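 qHTS, 4-pt dose (0.36-46 umol/L); SKOV3ip1-GFP, 1,200 cells/well, no FBS; primary omental fibroblast/mesothelial co-culture 48 h pre-grown; 2 h RT + 16 h 37 C; PBS wash, 4% PFA; GFP count 488/509 nm.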

Activity change, negative = inhibition, inactive:
CCCCOc1ccc(C(=O)NCCS(=O)(=O)N2CCN(c3ccccc3OC)CC2)cc1 -11.1%
CC(C)NCC(O)COc1ccc(CCOCC2CC2)cc1 (stereo not drawn) 28.1%
COc1ccccc1NC(=O)c1ccc2[nH]c(C)cc(=O)c2c1 0.902%
CCN(CC)S(=O)(=O)c1ccc2nc(NC(=O)c3ccccc3OC)sc2c1 4.2%
COc1cccc(CNC(=O)CSc2nc3ccccc3nc2Cc2ccccc2)c1 -20.2%
Cc1ccccc1NC(=O)c1c(C)oc2ccc(O)c(CN3CCCC(C)C3)c12 (stereo not drawn) -2.46%
O=c1c2sc3ccccc3c2n(Cc2ccccc2F)c(=O)n1-c1ccccc1Cl -1.54%
Cc1ccc2c(c1)cc(C(=O)NCc1ccc(F)cc1)n2C 0.697%
Cc1cccc2cc(CN(C(=O)c3cccc(Cl)c3)c3ccccc3)c(=O)[nH]c12 -4.36%
CCN(C(=O)CSc1nc(-c2ccccc2)no1)c1cccc(C)c1 -22.5%
CNC(=O)C1CCC(Cn2c(=O)c3sccc3n(CC(=O)N3CCCC3)c2=O)CC1 (stereo not drawn) 3.81%
COc1cccc(CNc2ncnc3c2nnn3C)c1 -8.24%
COc1ccccc1Nc1nn2c(=O)c3ccc(C(=O)NC4CCC(C)CC4)cc3nc2s1 (stereo not drawn) -1.31%
O=C(C1CCN(S(=O)(=O)c2ccc(Br)s2)CC1)N1CCN(c2ccc(F)cc2)CC1 1.92%
CCOc1ccc(C2C(C(N)=O)=C(C)Nc3nc(-c4ccc(OC)cc4)nn32)cc1 (stereo not drawn) 2.62%
CCc1nc(N)nc(N)c1-c1ccc(Cl)cc1 -18.7%
O=C(OCc1cc(=O)n2nc(C3CC3)sc2n1)c1ccc(NC(=O)c2ccccc2Cl)cc1 -2.69%
COc1ccc(C(=O)Nc2ccccc2)cc1S(=O)(=O)Nc1ccc(Br)cc1 -12%
CC(C)c1ccc(S(=O)(=O)c2nnn3c2nc(NCc2cccs2)c2sccc23)cc1 6.18%
O=C(NCC(c1ccc2c(c1)OCO2)N1CCN(c2ccccc2)CC1)C(=O)Nc1ccccc1 (stereo not drawn) -0.367%
O=C(Nc1cccc(C(=O)N2CCN(c3ccccc3)CC2)c1)c1nsc2ccccc12 8.34%
O=C(Nc1ccc2nc(SCC(=O)N3CCCc4ccccc43)sc2c1)c1ccccc1F 0.442%
Cc1ccc(NC(=O)CCn2nc(-c3ccccc3)c3ccccc3c2=O)c(C)c1 -9.95%
Fc1ccc(Nc2nc(-c3cccc(Cl)c3)c3c(n2)-c2ccccc2OC3)cc1 -17.9%
CCc1ccc2oc(C(=O)Nc3cc(Cl)ccc3OC)cc(=O)c2c1 12.3%
COc1ccc(-c2cc(C(F)(F)F)c(C#N)c(SCC(=O)Nc3ccccc3F)n2)cc1 -17.9%
COc1ccc2c(c1)c1c(c(=O)n(-c3ccccc3C)c(=O)n1CC(=O)N1CCCC1)n2C 4.13%
COc1ccc(C2C=C(c3ccccc3)Nc3nc(NC(=O)/C=C/c4ccc(F)cc4)nn32)cc1 (stereo not drawn) 3.32%
CCOc1ccc(CNC(=O)C2CCN(S(=O)(=O)c3cn(C)cn3)CC2)cc1OC -2.1%
COc1cccc(CN2C(=O)CN(C3CCCCC3)C(=O)C2c2ccc(OC)c(OC)c2)c1 (stereo not drawn) 2.41%
COc1ccc(CNC(=O)c2cnn(-c3ccc(C)cc3)c2-n2cccc2)cc1OC 0.793%
COc1ccccc1C(=O)Nc1ccc(OCc2cc(=O)n3ccc(C)cc3n2)cc1 -6.29%
COc1cccc(CNc2nccn(-c3ccc(OC)c(OC)c3)c2=O)c1 26.3%
COc1ccc(-n2c(/C=C/c3c(C)[nH]c4ccccc34)nc3ccccc3c2=O)cc1 -18.7%
CCn1c(=N)c(C(=O)NC2CCCC2)cc2c(=O)n3ccccc3nc21 -8.83%
O=C(OCc1cccc(C(F)(F)F)c1)c1ccc(-c2nnn(Cc3ccc(F)cc3)n2)cc1 -17%
COCc1cc(C)nc2sc3c(c12)NC(c1ccc(O)cc1)N(c1ccc(C)cc1)C3=O (stereo not drawn) -8.73%
O=C(Cn1c2ncccc2c(=O)n1-c1ccccc1)Nc1ccc(Cl)cc1C(F)(F)F -2.73%
COc1ccc(C)cc1-n1c(-c2ccc(C)cc2)cc2c1CC(C)(C)CC2=O -2.4%
COc1ccccc1NC(=O)c1sc2ncn(Cc3ccccc3Cl)c(=O)c2c1C 8.16%
CCOC(=O)C1CCCN(S(=O)(=O)c2ccc3[nH]c(=O)oc3c2)C1 (stereo not drawn) 6.51%
COc1ccc2c(c1)C=C(C(=O)NCc1cc(Br)ccc1OC)CO2 1.6%
CCCCCn1cc2c(c1-c1ccc(Cl)cc1)c(=O)n(C)c(=O)n2C -9.25%
Cc1cccc(C(=O)Nc2ccc3oc(-c4ccncc4)nc3c2)c1 -9.5%
CCOc1ccc(C(=O)OCc2cc(=O)n3cc(C)sc3n2)cc1 0.585%
COc1ccc(-c2nc3scc(CCNC(=O)c4cc(OC)cc(OC)c4)n3n2)cc1 11%
CC(C)N1CCc2nc(SCC(=O)Nc3cccc(F)c3)[nH]c(=O)c2C1 5.13%
COC(=O)Nc1nc2ccc(Sc3ccccc3)cc2[nH]1 -12.4%
Cc1ccc2[nH]c3c(=O)n(CC(=O)NC(C)C)ncc3c2c1 -4.46%
COc1ccc(-c2[nH]c3ccccc3c2SCCNC(=O)c2ccc(S(=O)(=O)N(C)C)cc2)cc1 1.79%
COc1ccc(S(=O)(=O)NCC(c2ccc(N(C)C)cc2)N2CCOCC2)cc1 (stereo not drawn) 32.4%
CCOc1ccc(CNC(=O)c2sc3ncnc(N(C)C4CCCCC4)c3c2C)cc1 4.28%
NC(=O)c1ccccc1NC(=O)Cn1nc(Cc2cccnc2)c2ccccc2c1=O -3.01%
CCNc1oc(-c2ccc(COc3ccc(Cl)cc3)o2)nc1C#N 16.4%
CCCCOc1ccc(CNC(=O)Cc2ccc(NC(=O)N3CCSc4ncccc43)cc2)cc1 -5.86%
COC(=O)c1cc2oc(C)cc2n1CC(=O)Nc1cc(Cl)ccc1OC -0.98%
COc1ccc(S(=O)(=O)N2CCN(CC(=O)Nc3ccc(Cl)c(C(F)(F)F)c3)CC2)cc1 4.1%
Cc1ccc(Cl)cc1NC(=O)CSc1nc2c(c(=O)[nH]1)CN(Cc1ccccc1)CC2 -3.56%
COc1ccc(C(=O)Oc2cc(-c3ccc4c(c3)OCO4)cc(=O)c3c(C)oc(C)c23)cc1 -5.94%
O=C(CSc1ncc(CO)n1Cc1ccc(Cl)cc1)NCc1ccc(F)cc1 -9.2%
COc1ccc(CNC(=O)c2cc3cccc4c3n2CC(C)S4)c(OC)c1 (stereo not drawn) -16.5%
Cc1cccc(NC(=O)CSc2nc(=O)n(Cc3ccccn3)c3c2CCC3)c1C 1.91%
Cc1ccc(-c2onc(C)c2C)cc1S(=O)(=O)Nc1ccc(Cl)cn1 0.245%
Cc1ccccc1C(=O)Nc1ccc(C(=O)OCc2cc(=O)n3nc(C(C)C)sc3n2)cc1 2.51%
CCOC(=O)c1ccc(NC(=O)CCc2c(C)nc3c(-c4ccc(F)cc4)c(C)nn3c2C)cc1 -2.77%
CCOc1ccc2nc(NC(=O)c3cc(=O)c4cc(C)cc(C)c4o3)sc2c1 5.63%
CSc1ncc(C(=O)Nc2ccc(C(C)=O)cc2)c(-c2ccccc2)n1 2.73%
COc1ccc(NC(=O)c2cn3c4c(ccc(Cl)c4c2=O)OC(C)C3)cc1OC (stereo not drawn) 5.79%
Cc1ccc(NC(=O)CC(C)S(=O)(=O)c2ccc3c(c2)NC(=O)CO3)cc1C (stereo not drawn) 6.02%
CCOc1ccc(-c2cn3c(n2)sc2cc(C(=O)NC4CCCc5ccccc54)ccc23)cc1 (stereo not drawn) -0.553%
N#CC(=C(N)Sc1ccccc1N)C(C#N)=C(N)Sc1ccccc1N 0.988%
Cc1oc2ccc(O)c(CN3CCCC3)c2c1C(=O)Nc1cccc(Cl)c1C 1.41%
COc1ccc(Nc2cc(C(=O)NCc3ccccc3)c3ccccc3n2)c(OC)c1 4.52%
COc1ccc2c(CNCCc3ccccc3)c(C(=O)O)n(Cc3cccc(F)c3)c2c1 -8.18%
Cc1cccc(NC(=O)CSc2nc3c(oc4ccccc43)c(=O)n2-c2ccc(F)cc2)c1 36.9%

outcome, inactive:
CN(C)c1ccc(C(CNC(=O)c2ccccc2Cl)N2CCc3ccccc32)cc1 (stereo not drawn)
Cc1cc(Br)ccc1NC(=O)COc1cc(=O)n(C)c2ccccc12
COc1cc2c(cc1OC)C(c1ccc(F)cc1)N(c1ccccc1)C(=O)C2 (stereo not drawn)
CCOCC(=O)Nc1ccc(-c2cn3c(C)csc3n2)cc1
COc1ccccc1N1CCN(c2ccc(=O)n(CC(=O)O)n2)CC1
COc1cccc(C2CC(=O)Nc3c2c(=O)[nH]c2ncnn32)c1OC (stereo not drawn)
COc1ccccc1C(=O)Nc1cccc(OCc2cc(=O)n3c4c(sc3n2)CCCC4)c1
O=c1c2sc3ccccc3c2n(Cc2ccc(F)cc2)c(=O)n1Cc1ccco1
Cc1cc2ccccc2n1CCNC(=O)c1ccccc1F
CCc1ccc(C2=C(C)C(N3CCC(C(=O)Nc4ccc(F)cc4)CC3)=NS2(=O)=O)cc1
Cc1c(C(=O)Nc2ccccc2)sc2nc(-c3cc4ccccc4oc3=O)[nH]c(=O)c12
CCC(C)Sc1c(C(C)C)cnc2c1c(=O)n(C)c(=O)n2C (stereo not drawn)
CCOc1ccc(S(=O)(=O)N2CCC(N3CCN(Cc4ccc(C)cc4)C(=O)C3=O)CC2)cc1
Cc1nn(C)c2c1c(-c1ccccc1)cc(=O)n2Cc1ccc(Cl)cc1
CCN(C(=O)c1cn(-c2ccc(OC)cc2)c(=O)c2ccccc12)c1cccc(Cl)c1
Cc1nn(C(=O)c2ccccc2)c(C)c1S(=O)(=O)N1CCCCCC1
COc1ccc(CNC(=O)CSc2ncc(S(=O)(=O)c3ccc(Br)cc3)c(=O)[nH]2)cc1
COC(=O)c1cccc(Nc2nn3c(=O)c4cc5c(cc4nc3s2)OCO5)c1
Cc1nn(-c2ccc(N3CCOCC3)nn2)c(C)c1CCC(=O)NCc1ccccc1F
O=C(CSC1=Nc2ccccc2N=C(c2ccc(F)cc2)C1)NCc1ccccc1Cl
CCOc1ccc(NC(=O)N(C(C)C)C2CCN(C(C)=O)CC2)cc1
COc1ccc(NC(=O)C2Cc3ccccc3N2C(=O)c2ccccc2)cc1OC (stereo not drawn)
COc1ccc(N(Cc2cccs2)C(=O)COc2cc(C)c(Cl)c(C)c2)cc1
